The values that follow come from article PMC2671562.

No constants are given. Whether binding was seen depends on the method and setting. Some results given as binding are weak or reduced against the parent protein; the word gives no strength.

Experiment [1] has as its target dPER[232–599] E474R/H492S/R494D (Drosophila melanogaster) (UniProt P07663). Put plainly: SEC; gel filtration of the dPER[232–599] E474R/H492S/R494D mutant, unpublished data; both purified.
In experiment [2] the target is dPER[232–599] M560D/W482E (Drosophila melanogaster) (UniProt P07663). Put plainly: AUC; sedimentation equilibrium, interference optics, 10 °C, 25 mM HEPES pH 7.7, 100 mM NaCl, 2 mM DTE; four starting concentrations from stocks of 0.8–2 mg/ml; dimer to monomers, K D = 1/K A; both purified.
Experiment [3] has the same target. Kind of experiment: SEC; analytical gel filtration of GST-free dPER fragments, HiLoad Superdex 200 16/60, 4 °C, 25 mM HEPES pH 7.7, 200 mM NaCl, 2 mM DTE; 1 ml of 5–10 mg/ml loaded; both purified.
In experiment [4] the target is T1, Drosophila TIMELESS, full-length, two-hybrid bait (Drosophila) (UniProt P49021).
T1 sequence: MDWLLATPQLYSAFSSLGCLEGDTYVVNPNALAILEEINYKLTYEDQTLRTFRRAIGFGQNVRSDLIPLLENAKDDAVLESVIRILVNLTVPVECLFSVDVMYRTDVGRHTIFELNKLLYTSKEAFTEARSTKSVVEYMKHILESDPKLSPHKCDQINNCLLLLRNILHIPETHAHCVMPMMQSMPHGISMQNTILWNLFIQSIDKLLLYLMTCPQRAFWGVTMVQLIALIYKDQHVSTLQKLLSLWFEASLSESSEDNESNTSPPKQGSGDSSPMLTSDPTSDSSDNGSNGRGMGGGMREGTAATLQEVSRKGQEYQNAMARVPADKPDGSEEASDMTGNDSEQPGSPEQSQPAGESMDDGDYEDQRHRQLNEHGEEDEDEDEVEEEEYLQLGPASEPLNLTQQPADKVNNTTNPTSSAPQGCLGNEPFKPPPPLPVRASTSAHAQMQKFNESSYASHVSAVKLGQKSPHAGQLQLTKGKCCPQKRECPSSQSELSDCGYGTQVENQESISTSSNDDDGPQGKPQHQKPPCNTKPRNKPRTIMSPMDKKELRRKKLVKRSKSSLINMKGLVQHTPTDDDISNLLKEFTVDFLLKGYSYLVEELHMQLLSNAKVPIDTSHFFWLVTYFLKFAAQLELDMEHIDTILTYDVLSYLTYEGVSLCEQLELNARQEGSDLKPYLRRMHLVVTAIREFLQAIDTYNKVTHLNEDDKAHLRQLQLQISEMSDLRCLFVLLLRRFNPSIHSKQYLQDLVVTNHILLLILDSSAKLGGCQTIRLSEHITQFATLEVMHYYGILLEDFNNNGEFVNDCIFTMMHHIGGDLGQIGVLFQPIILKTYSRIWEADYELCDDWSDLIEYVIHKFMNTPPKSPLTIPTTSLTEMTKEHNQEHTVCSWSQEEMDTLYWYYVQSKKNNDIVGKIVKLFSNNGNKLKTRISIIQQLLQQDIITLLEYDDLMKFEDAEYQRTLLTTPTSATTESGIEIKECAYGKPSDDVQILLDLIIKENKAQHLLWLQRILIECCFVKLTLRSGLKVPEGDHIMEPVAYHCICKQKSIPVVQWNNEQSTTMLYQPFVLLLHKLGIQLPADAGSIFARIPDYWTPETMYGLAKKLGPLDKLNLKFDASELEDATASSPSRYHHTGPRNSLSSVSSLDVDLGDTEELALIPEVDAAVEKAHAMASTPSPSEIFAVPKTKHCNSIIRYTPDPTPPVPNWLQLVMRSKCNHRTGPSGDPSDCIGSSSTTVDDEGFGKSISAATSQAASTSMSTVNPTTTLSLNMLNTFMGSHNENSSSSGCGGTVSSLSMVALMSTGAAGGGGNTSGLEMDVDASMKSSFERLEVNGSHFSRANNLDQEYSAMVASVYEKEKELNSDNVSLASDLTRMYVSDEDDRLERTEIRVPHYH
Put plainly: two-hybrid; dPER fragments as prey (pJG4–5), full-length dTIM as bait (pEG202), yeast EGY48, lacZ reporter on X-Gal medium, 2–3 d at 30 °C.

With “dPER[232–599] E474R/H492S/R494D (from UniProt P07663 232-599) (domain or fragment)”, in experiment [1], the binding result is given as “binds”. “dPER[232–599] M560D/W482E (from UniProt P07663 232-599) (domain or fragment)”: the results for the binding result in experiment [2] and in experiment [3] were “no binding (tested: stock solutions 0.8–2 mg/ml)” and “no binding (tested: 1 ml of 5–10 mg/ml loaded)”, respectively. For the substance “dPERΔαF[232–538] E474R/H492S/R494D, two-hybrid prey (from UniProt P07663 232-538) (domain or fragment)”, the binding result in experiment [4] is “no binding”.

As to “dPERΔαF[232–538], wild-type, two-hybrid prey (from UniProt P07663 232-538) (domain or fragment)”, in experiment [4], the binding entry is “binds”.
